Experimental data from the supplement of paper PMC3334620.
Over roughly 33,000 sequences, “E-score (-0.5 to 0.5)” has its median near -0.036; the highest 2% begin near 0.37. Some of the results follow.

The sequences below were run against T1, Yer064c (UniProt P40041) (assay: PBM E-score (8-mer binding enrichment) (E-score (-0.5 to 0.5)); higher = stronger / more preferred TF binding; most listed sequences are background and not binding sites). Settings: protein concentration: 200 nM; construct: GST-full length.
T1 sequence: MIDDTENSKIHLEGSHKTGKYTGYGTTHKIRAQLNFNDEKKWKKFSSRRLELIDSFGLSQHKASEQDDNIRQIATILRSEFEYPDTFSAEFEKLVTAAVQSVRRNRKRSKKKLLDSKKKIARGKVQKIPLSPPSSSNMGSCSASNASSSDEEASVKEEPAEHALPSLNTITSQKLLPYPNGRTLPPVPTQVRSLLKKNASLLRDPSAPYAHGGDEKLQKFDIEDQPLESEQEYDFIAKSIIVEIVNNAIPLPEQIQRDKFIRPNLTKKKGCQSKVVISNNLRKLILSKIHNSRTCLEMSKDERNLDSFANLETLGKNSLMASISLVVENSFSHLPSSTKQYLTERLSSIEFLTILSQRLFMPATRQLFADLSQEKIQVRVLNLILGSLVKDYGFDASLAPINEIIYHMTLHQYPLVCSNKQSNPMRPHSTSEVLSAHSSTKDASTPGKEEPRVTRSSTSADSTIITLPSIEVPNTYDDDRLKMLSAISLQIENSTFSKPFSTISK
Outline: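 Universal all-10-mer Agilent arrays, double-stranded by primer extension on fresh or once-stripped slides, were probed with about 100-200 nM GST-tagged yeast transcription factors made by PURExpress. Fluorescent anti-GST detected bound protein, and masliner normalised the scans. E-scores from the Universal PBM Analysis Suite were given to each ungapped eight-base word pooled with its reverse complement.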

Sequence | PBM E-score
AATACTGG | -0.118
AATTACAA | -0.0291
AGATTTAT | 0.151
AACATAAA | 0.065
GGGGACGA | -0.0531
ACAACACG | -0.182
TTAGGCAA | -0.0683
CCATACGG | -0.104
ACTAGAGG | 0.113
ATCACTCA | 0.298
GATCTAAA | 0.101
GGGAGCGA | -0.068
GACTCGCC | 0.371
GATACTCA | 0.311
CCGAGTGA | 0.151
ACAATCTA | 0.12
GGGATGCA | -0.127
GCTTAGCC | -0.0758
CATCTGGG | -0.0921
ACGGCTTA | -0.0372
CGCACACC | -0.0196
TGACTGAA | 0.432
AACTAGAG | 0.0933
ATCTACCG | -0.0521
AGACACGA | 0.0462

Sequence | PBM E-score
TAACTATA | 0.0807
GCGGCAGC | -0.295
GCCCAGGA | -0.148
AATCGAAT | 0.0432
GACTAGCA | 0.374
ACGTAGGA | 0.0744
CTTTAGAA | 0.0224
ACGCTGTA | -0.00895
CTATAATC | 0.227
CTGCCGCA | -0.103
GTCGTCGA | 0.106
CACCCGAA | 0.0215
AATGCCGA | -0.0788
AGCGCCGC | -0.315
ACGAAATG | -0.05
AGCAGAGA | 0.0273
GGCGAAAA | -0.099
GAAGTCCA | -0.0504
CCATCGCG | 0.0738
GCATTTAA | -0.0791
CCGAGCAC | -0.113
AGAAGGCA | -0.3
AGTACGCC | 0.0783
ACGGTCTC | -0.123
CACATCAG | -0.0487

Sequence | PBM E-score
GGGTAGTA | -0.116
ATTAGTCG | 0.41
ACTCCCTA | 0.163
CGGCTTAG | -0.0555
CCTAACAC | 0.0929
GGCAAGCC | -0.208
AAACTTCT | 0.0722
AATTTGTG | 0.00772
AAGGACAA | 0.146
AACGCACT | -0.0933
CTGGGACA | -0.195
CCGGCTAA | 0.0105
GCGTATTA | -0.118
GTAGCGCA | -0.238
TAGCGCAA | -0.0782
CCCTTGAA | -0.0587
ATCCACCG | 0.0718
TAAGGAGA | 0.123
ACCGCTAT | -0.159
CCACCTGG | -0.145
ATTTGTGC | 0.0583
CGTGGTAA | -0.141
ATGTTTCG | 0.0613
GCAATGCA | -0.156
AGAGCCTG | -0.19

Sequence | PBM E-score
ACTGGTTG | 0.013
CAGATACC | -0.147
AGCCGATC | -0.0598
CCTATCAG | -0.2
ATCAACGG | 0.168
AGTCAGAC | 0.436
GAAAATGC | -0.228
GCCAGCGC | -0.166
AACCCCTA | -0.0207
AGACCGCG | -0.1
ACTCGTAG | 0.218
TCTAAGAA | 0.163
ACAATTAC | 0.162
ATACTTGA | 0.103
AGAGATAG | -0.0413
GCCGGGCA | -0.199
AAGGTACG | -0.094
ACTTTGGG | 0.0215
CAGACTGC | 0.0507
GTGAATGA | 0.14
ACGTTTAC | -0.123
ATTCCCGA | -0.0261
CATACACA | 0.113
AATTAAAA | 0.034
TGTTTTAA | 0.138

Sequence | PBM E-score
CGAATGGA | -0.0457
AATGAATG | -0.0293
CATTAGAG | 0.0235
CTTAGAAC | 0.0672
CCTCGGTC | -0.143
CTAAAACA | 0.131
AGACTCAA | 0.444
ATGTCGAA | 0.0855
ACCCACCA | 0.0966
CATCCGGA | -0.0769
TACACTCA | 0.261
GGGGCGGA | -0.283
AGTAGTCC | 0.302
ACCACGAT | 0.0506
GCTCGTGA | 0.0795
CTCTAGTA | -0.0139
AATTCTTC | -0.0359
CTCTAACA | 0.0233
CTGAAGGA | -0.0183
CATTCTGG | -0.0961
AAGTGGCG | -0.181
CGATATGC | -0.107
CATTACAC | 0.16
GGTTCTAA | -0.0224
CCTCTTTC | -0.185

Sequence | PBM E-score
GCGTGAGC | 0.0182
CAGTTTGG | -0.0794
GTCCACCA | -0.0759
AAATGCTG | -0.0597
AGCGATGG | -0.023
CTCAGTAA | 0.129
CTGGCCGC | -0.163
GAATAAGA | 0.024
CTTGGTGA | 0.179
CCTGAGTA | 0.234
AATTAAGC | 0.00193
ACGTTGAG | 0.0564
AAGCCAAA | -0.0544
AACTATGC | -0.153
CTTTAACC | 0.0642
CCGGAAGG | -0.135
TAGAATAA | -0.0152
ATAAACTG | -0.071
CATAGCCC | -0.137
AAATTATA | -0.00406
CATCTGGC | 0.179
CATTTCGA | -0.0334
TCATTGAA | 0.214
GAGCGGGA | -0.0855
CTGGAATC | 0.123

Sequence | PBM E-score
CACAGGCC | -0.178
GGGCACAC | -0.207
ACCCTTTA | -0.0479
ACGGCAAA | -0.28
AGCCCCCC | -0.221
CAATATCG | -0.0208
ATTATAAG | 0.109
GCTTAGGA | -0.062
GAGGGCAC | -0.327
CCATTACA | 0.12
CGGAGCCA | -0.107
CATCGTGC | -0.0833
ATCCCGCA | -0.0251
CCTATGCG | -0.057
AACCGTCG | -0.191
GTCCTTGA | 0.138
AAAAGCGA | -0.00511
ATGCCCCC | -0.194
AACCCCCC | -0.171
CTAACTGC | -0.135
CGCAGAGC | 0.00552
GCATCTTA | -0.0391
